# Measurements reported in patent US20250127918A1, “SITE-SELECTIVE CONJUGATION OF A PHARMACEUTICAL AGENT TO AN ANTIBODY USING AN AFFINITY PEPTIDE” (priority 2023, published 2025).
# What was measured:
# Format in all cases: biochemical
# [1] = biological target: T1, Trastuzumab (Homo sapiens, UniProt P01857, D239E/L241M); test: Conjugation of electrophile-attached Z33 reagents to trastuzumab, analyzed by SDS-PAGE; conditions: 24 h
# T1 construct: purchased Syd Labs Inc; MedChemExpress LLC; Bio X Cell
# T1 sequence (P01857 with tags, fused parts or gaps isoform P01857-1 D239E/L241M, other chains not shown): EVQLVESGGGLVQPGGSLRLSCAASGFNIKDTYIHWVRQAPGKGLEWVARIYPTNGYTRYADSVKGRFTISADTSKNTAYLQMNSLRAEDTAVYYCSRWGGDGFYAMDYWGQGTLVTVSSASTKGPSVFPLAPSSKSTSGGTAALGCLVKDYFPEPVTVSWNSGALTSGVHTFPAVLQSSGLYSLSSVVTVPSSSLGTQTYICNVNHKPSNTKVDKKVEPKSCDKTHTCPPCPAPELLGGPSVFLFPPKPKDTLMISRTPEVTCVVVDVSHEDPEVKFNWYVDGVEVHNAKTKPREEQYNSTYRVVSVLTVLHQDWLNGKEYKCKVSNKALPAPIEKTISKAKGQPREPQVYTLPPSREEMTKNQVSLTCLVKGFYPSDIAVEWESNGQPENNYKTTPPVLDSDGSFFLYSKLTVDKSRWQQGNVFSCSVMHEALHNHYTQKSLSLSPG
# Description: Determination by SDS-PAGE: Band densitometry was calculated using ImageJ software. Densitometry-based yields were calculated based on the product: starting material protein ratio in lanes and standardized based on molecular weight.
# Reactions were performed on a 20 μL scale using 0.2 mL PCR tubes (FIG. 60). First, the electrophile-attached Z33 peptide reagent was dissolved in water to prepare a 1 mg/mL solution. […] The resulting reaction solution was quenched with a 100 mM glycine solution and analyzed by SDS-PAGE.
# The reaction was performed on a 210 μL scale using a 1.5 mL microcentrifuge tube. First, PEL-09 was dissolved in water to prepare a 2 mg/mL solution. […] The reaction mixture was diluted to 400 μL with citrate buffer (100 mM, pH 2.7) and filtered through an Amicon® filter (0.5 mL, 50KMWCO) at 14000 ref for 7 minutes. After filtration, 400 μL of citrate buffer (100 mM, pH 2.68) was added and centrifuged again, followed by centrifugation with 400 μL of Tris (100 mM, pH 8.1) buffer (total of 3 centrifugations). Finally, the remaining solution (roughly 20 μL) on the Amicon® filter was transferred to a microcentrifuge tube, and the Amicon® filter was washed twice with 40 μL of Tris buffer (100 mM, pH 8.1). The obtained solution was analyzed by LC-MS (FIG. 49, Table 6) and SDS-PAGE (FIG. 50, Table 5).
# The reaction solution corresponding to 3.5 μg of IgG was taken into a PCR tube and diluted with Tris buffer (100 mM, pH 8.1) to a final volume of 3 μL. Then, Laemmli sample buffer (BIO-RAD, 2×+5v/v % 2-mercaptoethanol, 3 μL) was added, and the mixture was heated at 70° C. for 5 minutes. After returning the reaction solution to room temperature, 2 μL was loaded onto an SDS-Gel. Subsequently, electrophoresis, washing, staining, and analysis were performed using the methods described in General Information Section.
# The purified tirzepatide-transfer reagent was then evaluated for its reactivity against human IgG trastuzumab.
# [2] = biological target: T1, Trastuzumab; test: Bioconjugation handle / GLP1 transfer to trastuzumab, analyzed by Q-ToF LC-MS; conditions: 100 mM HEPES pH8.7; large scale reaction for entry 15, room temperature, 24 h
# [3] = biological target: T1, Trastuzumab; test: as above; conditions: 100 mM HEPES pH8.7; large scale reaction for entry 15, room temperature, 24 h; remark: listed apart in the source
# Description: The conversion rate for each reaction was calculated by one of the following methods. Determination by LC-MS: Reported yields based on LC-MS spectra were determined by extracting the total ion current (TIC) spectra of all protein-containing species in the chromatogram utilizing Agilent MassHunter 6.0 software with BioConfirm package. These extracted chromatograms were deconvoluted utilizing a maximum entropy algorithm and abundance of each species determined using total ion count.
# A reaction solution corresponding to 9.0 μg of IgG was taken into a PCR tube and diluted with Tris buffer (100 mM, pH 8.1) to a final volume of 6 μL. […] Afterward, DTT (200 mM in water, 2 μL) was added, and the mixture was further incubated at 37° C. for 1 hour. Finally, the solution was diluted to a volume of 40 μL with a mixture of water and acetonitrile (95:5), and 8 μL of the diluted solution was injected into LC-MS.
# Reactions were performed on a 20 μL scale using 0.2 mL PCR tubes (FIG. 61). First, the electrophile-attached Z33 peptide reagent was dissolved in water to prepare a 2 mg/mL solution. […] The resulting reaction solution was quenched with a 100 mM glycine buffer of 100 mM Tris buffer and analyzed by LC-MS. […]
# Reactions were performed on a 20 μL scale using 0.2 mL PCR tubes (FIG. 61). […] The resulting reaction solution was quenched with a 100 mM Tris buffer and analyzed by LC-MS (FIG. 53, Table 8).
# [4] = 100 mM HEPES pH8.5, trastuzumab 10 uM, reagent 200 uM, room temperature
# [5] = 100 mM phosphate pH7.2, trastuzumab 10 uM, reagent 200 uM, room temperature
# [6] = 20 mM HEPES pH8.5, 37° C., 8 equivalents of the reagent
# [7] = 20 mM HEPES pH8.5 with 200 mM NaCl, reagent 200 uM, room temperature
# [8] = 20 mM phosphate pH7.2, reagent 200 uM, room temperature
# [9] = 100 mM HEPES pH8.7, large scale reaction, room temperature
Substance,"Heavy chain total conversion [1, 4]","Light chain total conversion [1, 4] [%]","Heavy chain total conversion [1, 5] [%]","Light chain total conversion [1, 5] [%]","Heavy chain total conversion ratio (+1/+2/+3) [1, 4]",further results
01 (FNMQQQRRFYEALHDPNLNCEQRNAKIKSIRDD; linkage structure for IgG conjugation) [compound 01],77%,<1,49,<1,,
02 (FNMQQQRRFYEALHDPNLNCEQRNAKIKSIRDD; electrophile linker attached) [compound 02],,,,,,"Heavy chain total conversion [1, 6]: 50%; Light chain total conversion [1, 6]: 20%"
03 (FNMQQQRRFYEALHDPNLNCEQRNAKIKSIRDD; electrophile linker attached) [compound 03],,,,,,"Heavy chain total conversion [1, 7]: 81%; Light chain total conversion [1, 7]: <1%"
04 (FNMQQQRRFYEALHDPNLNCEQRNAKIKSIRDD; electrophile linker attached) [compound 04],49%,<1,,,,"Heavy chain total conversion [1, 8]: 37%; Light chain total conversion [1, 8]: <1%"
05 (FNMQQQRRFYEALHDPNLNCEQRNAKIKSIRDD; homocysteine; electrophile linker attached; MOD_RES 20 homocysteine) [compound 05],95%<,<1,97,<1,,
06 (FNMQQQRRFYEALHDPNLNCEQRNAKIKSIRDD; homocysteine; electrophile linker attached; MOD_RES 20 homocysteine) [compound 06],95%<,<1,88,<1,,
07 (FNMQQQRRFYEALHDPNLNCEQRNAKIKSIRDD; homocysteine; electrophile linker attached; MOD_RES 20 homocysteine) [compound 07],89%,<1,17,<1,,
08 (FNMQQQRRFYEALHDPNLNCEQRNAKIKSIRDD; homocysteine; electrophile linker attached; MOD_RES 20 homocysteine) [compound 08],89%,<1,17,<1,,
09 (FNMQQQRRFYEALHDPNLNCEQRNAKIKSIRDD; N-terminal 5-azido-pentanoyl; homocysteine; electrophile; MOD_RES 20 homocysteine) [compound 09],,,,,,"Heavy chain total conversion [2]: 95%; Heavy chain total conversion [1, 9]: 95%<; Light chain total conversion [1, 9]: <1%; Light chain total conversion [3]: <1%"
10 (CFNMQQQRRFYEALHDPNLNEEQRNAKIKSIRDD; electrophile linker attached) [compound 10],,<1,,<1,90/10/0,"Heavy chain total conversion ratio (+1/+2/+3) [1, 5]: 100/0/0"
12 (FNMQQQRRFYEALHDPCLNEEQRNAKIKSIRDD; electrophile linker attached) [compound 12],,<1,,<1,100/0/0,"Heavy chain total conversion ratio (+1/+2/+3) [1, 5]: 100/0/0"
13 (FNMQQQRRFYEALHDPNLNECQRNAKIKSIRDD; electrophile linker attached) [compound 13],,<1,,<1,100/0/0,"Heavy chain total conversion ratio (+1/+2/+3) [1, 5]: 100/0/0"
14 (FNMQQQRRFYEALHDPNLNEEQRCAKIKSIRDD; electrophile linker attached) [compound 14],,<1,,<1,100/0/0,"Heavy chain total conversion ratio (+1/+2/+3) [1, 5]: 100/0/0"
15 (FNMQQQRRFYEALHDPNLNEEQRNAKIKSICDD; electrophile linker attached) [compound 15],,<1,,<1,100/0/0,
